# Measurements published in the supplement of paper PMC3334620.
# The full ranking holds about 33,000 sequences; the median of “E-score (-0.5 to 0.5)” is about -0.032, and the highest 2% start at about 0.36. The list shows a part of the results.
# Target: T1, Sko1 (UniProt Q02100)
# T1 sequence: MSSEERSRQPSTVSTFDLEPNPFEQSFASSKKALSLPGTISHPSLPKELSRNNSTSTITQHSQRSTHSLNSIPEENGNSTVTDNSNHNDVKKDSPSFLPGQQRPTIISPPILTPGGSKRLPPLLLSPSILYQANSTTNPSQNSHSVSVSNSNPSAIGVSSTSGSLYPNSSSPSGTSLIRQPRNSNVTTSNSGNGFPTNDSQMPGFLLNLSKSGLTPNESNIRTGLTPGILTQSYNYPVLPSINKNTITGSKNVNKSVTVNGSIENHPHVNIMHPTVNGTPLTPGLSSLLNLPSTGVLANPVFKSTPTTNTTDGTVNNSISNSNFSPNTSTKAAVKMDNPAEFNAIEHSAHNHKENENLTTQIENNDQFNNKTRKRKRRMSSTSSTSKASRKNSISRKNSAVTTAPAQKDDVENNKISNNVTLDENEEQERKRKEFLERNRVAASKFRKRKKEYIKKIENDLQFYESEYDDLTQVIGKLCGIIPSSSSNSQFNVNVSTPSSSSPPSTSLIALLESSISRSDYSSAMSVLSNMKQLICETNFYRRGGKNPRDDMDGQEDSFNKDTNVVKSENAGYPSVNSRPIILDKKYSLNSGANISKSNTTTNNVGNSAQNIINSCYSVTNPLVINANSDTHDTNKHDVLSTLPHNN
# Test: PBM E-score (8-mer binding enrichment) (E-score (-0.5 to 0.5)); higher = stronger / more preferred TF binding; most listed sequences are background and not binding sites
# Details: protein concentration: 200 nM; construct: GST-full length
# In short: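 GST-tagged yeast TFs (full-length or DNA-binding domain) were made by PURExpress in vitro transcription/translation and applied at about 100-200 nM to universal all-10-mer Agilent arrays. The arrays were made double-stranded by primer extension, on fresh or once-stripped slides. Bound protein was detected with fluorescent anti-GST, and scans were normalised with masliner. Each ungapped eight-base word, pooled with its reverse complement, received an E-score (modified Wilcoxon-Mann-Whitney statistic) from the Universal PBM Analysis Suite.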
row,Sequence,PBM E-score
1,ATTTAGGC,0.0936
2,AACCAAAC,0.0145
3,AGCACACC,-0.192
4,ACCAAAAA,0.159
5,GAGTGAAA,0.0485
6,GACGTCTC,0.384
7,ATCGTGCC,0.00785
8,TCCAACCA,-0.1
9,ATCTAGGG,-0.0976
10,CTGAGCAA,0.0232
11,CCTTGCAC,0.0446
12,GAGCGTAC,-0.0178
13,AGCGATTA,0.0596
14,ATTGCCAC,-0.11
15,GAACGTTC,-0.0592
16,AGCCGAAG,-0.0411
17,ATCCATGA,-0.129
18,CAGGACCA,-0.185
19,CCGTGGCC,-0.207
20,CTGAAAAG,-0.0929
21,ATTATCCC,0.175
22,ATGCGCAA,0.165

row,Sequence,PBM E-score
1,ACCAGCTA,-0.0449
2,ACTGCCCA,-0.0818
3,CGTGAAAG,0.267
4,CCATAGGG,-0.278
5,CTAAGTGC,-0.0892
6,TGCAAGCA,-0.0894
7,CGTCATTC,0.482
8,GTCTGCGA,-0.0944
9,AGATGATC,0.0317
10,AGTCGTCG,-0.148
11,CATGCCTC,0.0373
12,CATGCTCA,-0.0974
13,AGCCTTCG,-0.283
14,CTAGCGGC,-0.388
15,GTAGCTAA,-0.0537
16,CAGGCAGA,-0.0717
17,AGAGGGTG,-0.215
18,GCCGCGTA,0.145
19,AGTAGGCC,-0.203
20,AACTGGTC,-0.112
21,CGAGGATA,-0.103
22,GAAGCGAC,-0.077

row,Sequence,PBM E-score
1,AAGCCTAT,0.00304
2,ATCGTGGA,-0.0211
3,GCCTCAAA,-0.223
4,AACCAAGG,-0.015
5,AAAGGCGT,-0.11
6,GCTAAACA,0.0426
7,CTATGCCA,-0.215
8,CTGCAGGC,-0.174
9,CAACCACG,0.232
10,GGTTATAA,0.0904
11,CCTTACCC,-0.149
12,CATACGAG,-0.00346
13,AATACCCT,-0.118
14,CTTCTATA,0.0482
15,GCGCAGGA,-0.131
16,AAAGCTTG,-0.00387
17,GGGTTCTA,-0.289
18,AGTGAGGA,-0.191
19,AAAAGCCC,-0.199
20,AAGGTTGT,0.00278
21,CCCGCACA,-0.0587
22,TTAACTAA,0.239

row,Sequence,PBM E-score
1,GCAAAGTA,0.035
2,TCCCCACA,0.0503
3,AACCTGGG,-0.29
4,AAATTCTA,0.0784
5,ACGGATCA,0.0945
6,CCGGTATA,-0.131
7,GCTTTGCC,-0.244
8,AGCGGCGA,-0.244
9,AGTCAATA,0.0536
10,GCTTCCAA,0.00837
11,CCCACCCG,-0.0998
12,AACTTCGT,0.129
13,GTTTTTGA,0.194
14,ATGTACTC,-0.0812
15,ACGGCATC,0.0446
16,ACCCAATG,-0.0468
17,GTTGTGCA,-0.00784
18,AAGACGGT,-0.154
19,CCGGTGGC,-0.342
20,GCCTTCTA,-0.156
21,AGCCTCAA,-0.238
22,ACCTTATC,-0.00654

row,Sequence,PBM E-score
1,ACACCTGA,0.0591
2,ACAGGCAG,-0.13
3,AAGGAATC,-0.278
4,GTTAGCGA,0.21
5,ATGCTTCC,-0.0957
6,ATTACCCG,-0.0393
7,CTCCGCTC,-0.0649
8,ACACGGCA,-0.0716
9,TCAGCTCA,0.0362
10,CTGTTCAC,-0.13
11,CATCAATG,0.108
12,CACTGACA,0.0149
13,AAAGTCTG,-0.0734
14,CTCCGGTA,-0.0659
15,GCAGGGGC,-0.109
16,GTCTGATA,-0.114
17,AGAAACCG,-0.141
18,CGCTCTAC,0.0256
19,TATTGGAA,0.214
20,ACTTTACA,0.158
21,ATTGCCGG,-0.274
